This note sets out measurements from US11180452B2, “Methods and compositions for selectively inhibiting pathogenic microbes” (priority 2019, dated 2021).

≈ marks a conversion by molar mass, not a printed value. Read-outs that look alike come from different tables or passages of the source.

For the assay, the system named is Francisella tularensis strains. The assay is described as follows: microbe, parasite or virus in culture. The class given is cell-based.

With `Brc1ccc2[nH]cc(Sc3ccccc3Br)c2c1` [Compound 174I, 5-bromo-3-((2-bromophenyl)thio)-1H-indole], the MIC by setting is: (read-out: F. tularensis BSL-3 MIC, Strain 100) 8 µg/mL (≈ 20.9 µM); (read-out: F. tularensis BSL-3 MIC, strain HN-63) 4 µg/mL (≈ 10.4 µM); (read-out: F. tularensis BSL-3 MIC, strain LVS) 2 µg/mL (≈ 5.22 µM); (read-out: F. tularensis BSL-3 MIC, strain MA00-2987) 1.33 µg/mL (≈ 3.47 µM); (read-out: F. tularensis BSL-3 MIC, strain MO #1) 2 µg/mL (≈ 5.22 µM); (read-out: F. tularensis BSL-3 MIC, strain MO #2) 1 µg/mL (≈ 2.61 µM). The MIC reads like this: (read-out: F. tularensis BSL-3 MIC, strain MO #3) 2 µg/mL (≈ 5.22 µM); (read-out: F. tularensis BSL-3 MIC, strain OR-96) 4 µg/mL (≈ 10.4 µM); (read-out: F. tularensis BSL-3 MIC, strain SCHU S4) 8 µg/mL (≈ 20.9 µM); (read-out: F. tularensis BSL-3 MIC, strain WY-96) 2 µg/mL (≈ 5.22 µM).
